Results on 18 molecules are retold here after the supplement of paper PMC4604168 (melanoma cell lines).

The other results are listed elsewhere or left out. Repeats are few or missing, and single values can be far off.
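Further: cells treated in 1,536-well plates, then fixed and DAPI-stained, with nuclei counted from automated high-throughput microscope images.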

In this experiment the test system is WM115. Put plainly: cell count relative to DMSO control; melanoma cells; higher = more viable cells. Conditions: library dose: standard library concentration; 72 h.
Molecule `C=C(c1ccc(C(=O)O)cc1)c1cc2c(cc1C)C(C)(C)CCC2(C)C` [Bexarotene] + Cc1cc([N+](=O)[O-])ccc1NS(=O)(=O)c1cc(Cl)ccc1Cl [FH535] (first compound 10 µM, partner dose 5 µM) had a cell count of 84.6%.

`CCCS(=O)(=O)Nc1ccc(F)c(C(=O)c2c[nH]c3ncc(Cl)cc23)c1F` + COc1cc2c(Oc3ccc4[nH]c(C)cc4c3F)ncnc2cc1OCCCN1CCCC1 [cediranib] (first compound 0.4 µM, partner dose 2 µM) had a cell count of 62%.

`C=C(c1ccc(C(=O)O)cc1)c1cc2c(cc1C)C(C)(C)CCC2(C)C` [Bexarotene] + CCN(CC)CCCCNc1ncc2cc(-c3cc(OC)cc(OC)c3)c(NC(=O)NC(C)(C)C)nc2n1 [PD173074] (first compound 10 µM, partner dose 0.5 µM) yielded a cell count of 112%.

As for `C=C(c1ccc(C(=O)O)cc1)c1cc2c(cc1C)C(C)(C)CCC2(C)C` [Bexarotene] + CC(C)CCN1c2nc(Nc3cc(F)c(O)c(F)c3)ncc2N(C)C(=O)C1C [BID1870] (first compound 10 µM, partner dose 1 µM), the cell count was found to be 101%.

`CS(=O)(=O)c1ccc(C(=O)Nc2ccc(Cl)c(-c3ccccn3)c2)c(Cl)c1` [vismodegib] + O=C(Nc1ccccc1)c1cc([N+](=O)[O-])ccc1Cl [GW9662] (first compound 5 µM, partner dose 10 µM) gave a cell count of 104%.

As to `CS(=O)(=O)c1ccc(C(=O)Nc2ccc(Cl)c(-c3ccccn3)c2)c(Cl)c1` [vismodegib] + c1cc(-c2cnn3cc(-c4ccc(OCCN5CCCCC5)cc4)cnc23)ccn1 [Dorsomorphin] (first compound 5 µM, partner dose 2 µM), the cell count stood at 72%.

The molecule `CN(c1ncccc1CNc1nc(Nc2ccc3c(c2)CC(=O)N3)ncc1C(F)(F)F)S(C)(=O)=O` + O=C1NC(=O)/C(=C/c2ccc(-c3ccc(F)cc3O)o2)S1 [AS252424] (first compound 0.4 µM, partner dose 5 µM) returned a cell count of 85.8%.

Turning to `CS(=O)(=O)c1ccc(C(=O)Nc2ccc(Cl)c(-c3ccccn3)c2)c(Cl)c1` [vismodegib] + CCN(CC)CCCCNc1ncc2cc(-c3cc(OC)cc(OC)c3)c(NC(=O)NC(C)(C)C)nc2n1 [PD173074] (first compound 5 µM, partner dose 0.5 µM), the cell count was found to be 82.5%.

For `C=C(c1ccc(C(=O)O)cc1)c1cc2c(cc1C)C(C)(C)CCC2(C)C` [Bexarotene] + O=c1cc(-c2cccc3c2Sc2ccccc2S3)oc(N2CCOCC2)c1 [KU55933] (first compound 10 µM, partner dose 5 µM), the cell count was determined as 88.1%.

On to `NC1(c2ccc(-c3nc4ccn5c(=O)[nH]nc5c4cc3-c3ccccc3)cc2)CCC1` + O=c1cc(-c2cccc3c2Sc2ccccc2S3)oc(N2CCOCC2)c1 [KU55933] (first compound 2 µM, partner dose 5 µM), for which the cell count is 84.8%.

Molecule `NC1(c2ccc(-c3nc4ccn5c(=O)[nH]nc5c4cc3-c3ccccc3)cc2)CCC1` + COc1cc2ncnc(Nc3ccc(Oc4ccccc4)cc3)c2cc1OC [SrcI1] (first compound 2 µM, partner dose 10 µM) yielded a cell count of 31.9%.

The molecule `CCCS(=O)(=O)Nc1ccc(F)c(C(=O)c2c[nH]c3ncc(Cl)cc23)c1F` + COc1ccc(COc2ccc(Cc3cnc(N)nc3N)cc2OC)cc1 [GW2580] (first compound 0.4 µM, partner dose 5 µM) had a cell count of 74.9%.

Consider `CCCS(=O)(=O)Nc1ccc(F)c(C(=O)c2c[nH]c3ncc(Cl)cc23)c1F` + Oc1nc(-c2ccc(C(F)(F)F)cc2)nc2c1CSCC2 [XAV939] (first compound 0.4 µM, partner dose 10 µM), for which the cell count was found to be 81.1%.

`CN(c1ncccc1CNc1nc(Nc2ccc3c(c2)CC(=O)N3)ncc1C(F)(F)F)S(C)(=O)=O` + COc1cc(N2CCC(N3CCN(C)CC3)CC2)ccc1Nc1ncc(Cl)c(Nc2ccccc2S(=O)(=O)C(C)C)n1 [NVP-TAE684] (first compound 0.4 µM, partner dose 0.4 µM): the cell count was found to be 57.4%.

The molecule `CCCS(=O)(=O)Nc1ccc(F)c(C(=O)c2c[nH]c3ncc(Cl)cc23)c1F` + c1cc(-c2cnn3cc(-c4ccc(OCCN5CCCCC5)cc4)cnc23)ccn1 [Dorsomorphin] (first compound 0.4 µM, partner dose 2 µM) gave a cell count of 56%.

Molecule `NC1(c2ccc(-c3nc4ccn5c(=O)[nH]nc5c4cc3-c3ccccc3)cc2)CCC1` + O=C1NC(=O)/C(=C/c2ccc(-c3ccc(F)cc3O)o2)S1 [AS252424] (first compound 2 µM, partner dose 5 µM) yielded a cell count of 74.5%.

For the molecule `CCCS(=O)(=O)Nc1ccc(F)c(C(=O)c2c[nH]c3ncc(Cl)cc23)c1F` + Cc1cc([N+](=O)[O-])ccc1NS(=O)(=O)c1cc(Cl)ccc1Cl [FH535] (first compound 0.4 µM, partner dose 5 µM), the cell count amounted to 62.3%.

`CN(c1ncccc1CNc1nc(Nc2ccc3c(c2)CC(=O)N3)ncc1C(F)(F)F)S(C)(=O)=O` + CC(C)CCN1c2nc(Nc3cc(F)c(O)c(F)c3)ncc2N(C)C(=O)C1C [BID1870] (first compound 0.4 µM, partner dose 1 µM): the cell count amounted to 81.6%.
